Results are given in words; binding and its absence hold for the method and conditions named. In cells and extracts the contact can be indirect. Some binding calls cover weakened binding; strength is not graded here. Sequences can lack the tags named with a protein.
Target: T1, tof1 997 truncation protein, C terminally TAP tagged (S. cerevisiae) (UniProt P53840)
T1 sequence: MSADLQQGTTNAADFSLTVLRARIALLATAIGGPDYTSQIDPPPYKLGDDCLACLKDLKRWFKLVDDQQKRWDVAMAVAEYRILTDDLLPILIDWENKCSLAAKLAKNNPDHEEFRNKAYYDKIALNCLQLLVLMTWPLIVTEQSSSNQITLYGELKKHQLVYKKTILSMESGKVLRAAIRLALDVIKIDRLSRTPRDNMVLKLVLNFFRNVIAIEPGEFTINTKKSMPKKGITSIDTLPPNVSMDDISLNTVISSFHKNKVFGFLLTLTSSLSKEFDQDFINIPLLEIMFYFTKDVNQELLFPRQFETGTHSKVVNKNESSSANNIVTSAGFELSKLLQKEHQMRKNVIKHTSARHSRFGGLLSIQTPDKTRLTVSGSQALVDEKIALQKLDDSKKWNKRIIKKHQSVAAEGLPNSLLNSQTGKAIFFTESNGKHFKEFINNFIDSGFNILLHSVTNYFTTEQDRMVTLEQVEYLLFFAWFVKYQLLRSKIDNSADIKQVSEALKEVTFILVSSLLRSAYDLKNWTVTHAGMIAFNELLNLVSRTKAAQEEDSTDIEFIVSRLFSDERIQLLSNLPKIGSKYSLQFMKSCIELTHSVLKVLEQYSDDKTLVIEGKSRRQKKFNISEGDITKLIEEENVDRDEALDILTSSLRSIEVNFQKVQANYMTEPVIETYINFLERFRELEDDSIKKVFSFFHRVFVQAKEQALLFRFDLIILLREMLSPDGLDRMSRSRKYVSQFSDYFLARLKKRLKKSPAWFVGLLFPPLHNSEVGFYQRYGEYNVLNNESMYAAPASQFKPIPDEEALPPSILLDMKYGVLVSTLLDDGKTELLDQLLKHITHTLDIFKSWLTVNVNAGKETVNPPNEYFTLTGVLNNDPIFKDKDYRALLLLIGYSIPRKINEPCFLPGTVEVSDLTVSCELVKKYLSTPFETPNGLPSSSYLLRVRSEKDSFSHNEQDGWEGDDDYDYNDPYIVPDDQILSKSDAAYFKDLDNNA
Experiment: co-IP; TAP-tagged Tof1 proteins captured on IgG Sepharose from cleared lysates of exponentially growing yeast; 2 h, 4°C; lysis buffer 50 mM HEPES pH 7.5, 300 mM KCl, 5 mM EDTA, 10 mM MgOAc, 10% glycerol, 0.01% Triton X-100; eluted in 0.2 M glycine pH 3.0; western blot with anti-Csm3

B1: Csm3 (protein, UniProt Q04659 1-317)
chain: MDQDFDSLLLGFNDSDSVQKDPTVPNGLDGSVVDPTIADPTAITARKRRPQVKLTAEKLLSDKGLPYVLKNAHKRIRISSKKNSYDNLSNIIQFYQLWAHELFPKAKFKDFMKICQTVGKTDPVLREYRVSLFRDEMGMSFDVGTRETGQDLERQSPMVEEHVTSAEERPIVADSFAQDKRNVNNVDYDNDEDDDIYHLSYRNRRGRVLDERGNNETVLNNVVPPKEDLDALLKTFRVQGPVGLEENEKKLLLGWLDAHRKMEKGSMTEEDVQLIQSLEEWEMNDIEGQHTHYDLLPGGDEFGVDQDELDAMKEMGF
binding: binds
